Experimental data: the supplement of paper PMC11417369
± gives the standard deviation of the averaged measurements. This is one part of the list.

system: PfAP2-I AP2 domain 3 (GST-tagged); assay: gcPBM binding intensity (ln(normalized median fluorescence intensity)); higher = stronger DNA binding
In short: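 GST-fused DNA-binding domains of P. falciparum, expressed in E. coli, were applied at about 25 μg on average for 1 h to an Agilent 4 × 180k array of primer-extended double-stranded 36-bp intergenic genomic probes and negative controls. Binding intensity is the highest Masliner-normalised natural-log median intensity across replicate spots of either probe orientation, measured with Alexa488 anti-GST antibody and a 488 nm scan.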

Sequence	gcPBM binding intensity (ln)
TATATAATATTTTTCACACACCATTTCCTTAAACAC [CACACA_site4862]	8.265 ± 0.078
TGTATAACCTGTGTTACACACATTATGATTTATATA [CACACA_site525]	7.76 ± 0.45
GCGAGATGCTAAAATGCATGTTGGGCATTAGTTAAA [TGCATGCA_site586]	8.12 ± 0.71
TATAATAATTCTTTGAGTACTTAAACATGTGAAATT [XGTACX_site955]	7.85 ± 0.41
ATATTAATATATGTGGCACACATGTGGAGTCCTATT [CACACA_site213]	8.27 ± 0.62
TATCATTTCTAAAAAGGTACACATACATCATATATT [XGTACX_site3386]	7.87 ± 0.58
AAAAAAATGAAGAAATGTACAAATTTCATTAATTTT [XGTACX_site354]	7.36 ± 0.56
GTGTAGTAAAATCGATGTACGTACAAATCAATTATT [XGTACX_site7662]	8.06 ± 0.39
TATATATGTAAATGCACACATATGTGGATATACTTA [CACACA_site1699]	10.8 ± 0.17
TGAACAGACAAATACACACACTCAAAAAAAAAAAAG [CACACA_site7287]	7.68 ± 0.45
GCACTCGTAAAAAGCACACATATAAAAACATTTATA [CACACA_site322]	8.4 ± 0.26
CAATGCTTTATCAATACATGCATATATATAGAAATA [TGCATGCA_site857]	7.62 ± 0.59
TTTTTTCTATTGAGCACACATATCACGATTAGTACT [CACACA_site313]	8.71 ± 0.33
GCTCAATTTTTGGGTACACACAAATGTATAATAATA [CACACA_site2388]	8.2 ± 0.18
ATATATATTATTTCTACACACATATATATAATATGT [CACACA_site3374]	7.94 ± 0.52
TTCTTTTTTCAACACACACACACAAGAAAATATATA [CACACA_site9019]	8.21 ± 0.31
CAAAGAGAAATAAACACACACAAAATAAAGAAAAAA [CACACA_site2245]	7.71 ± 0.79
AAAAAAAAAAAAAAAACACACATATAGATTTATATA [CACACA_site7196]	8.72 ± 0.56
TTAACAAAACTTTTAACACACAAAAAAAAAAAAAAA [CACACA_site6947]	8.01 ± 0.57
CTATAATAATAAAGTGAACACACACCGATAATATAT [CACACA_site9377]	7.71 ± 0.7
AATTAAATTACTTATACACACATAAAATGCCTGTAT [CACACA_site6597]	7.72 ± 0.6
TTATGATATATTTGTTGTACGCTTTTTTTATGAACT [XGTACX_site573]	8.17 ± 0.49
GTAAGTTGTGCATTCACACACATATAAATATAAATA [CACACA_site7536]	9.56 ± 0.36
CATTATGTTGTAAATGCACACATACAAATACATATA [CACACA_site8380]	9.74 ± 0.52
AACACATACATATATACACACACAAAATAATAAAAT [CACACA_site8724]	8.08 ± 0.28
